US20260216362A1, “ANTI-BDCA2 ANTIBODY-DRUG CONJUGATE AND USE THEREOF” (DUALITY BIOLOGICS (SHANGHAI) CO., LTD., priority 2022, published 2026)

T1: recombinant Human BDCA2 (Homo sapiens, UniProt Q8WTT0)
T1 construct: extracellular domain (Asn45-Ile213) of human BDCA2 (hBDCA2); human IgG1 Fc (fused via a linker) (N); made in house; host or cells: 293E
T1 sequence (Q8WTT0 45-213): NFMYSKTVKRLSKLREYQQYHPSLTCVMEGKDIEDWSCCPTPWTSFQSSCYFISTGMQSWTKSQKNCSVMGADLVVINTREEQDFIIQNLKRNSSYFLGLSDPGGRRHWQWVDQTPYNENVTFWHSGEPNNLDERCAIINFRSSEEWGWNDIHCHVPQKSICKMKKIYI


How the values were obtained:
recombinant Human BDCA2 = target: T1, recombinant Human BDCA2; assay: Affinity assay of humanized antibodies by BIAcore (SPR); conditions: 1:1 binding model
Protocol: The humanized antibodies of the present disclosure were assayed for affinity by the BIAcore experiment. The surface of a CM5 chip channel was activated with 50 mM NHS and 200 mM EDC (NHS and EDC from an amino coupling kit) mixed in a ratio of 1:1, and the anti-human IgG (Fc) antibody (diluted with a sodium acetate solution at pH 5.0, the concentration was 25 μg/mL) was injected for 420 s. Then 1 M ethanolamine was injected at a flow rate of 10 μL/min for 420 s to block excess active carboxyl groups on the chip. The humanized antibody was diluted to 1 μg/mL using a running buffer and injected into a detection channel flow cell at a flow rate of 10 μL/min. The sample injection was performed for 60 s for capture. The recombinant Human BDCA2 was diluted to 50 nM or 100 nM with 1× HBS-EP+ (pH 7.4), and diluted in a gradient of 1:2 to 0.39 nM. The test samples hBDCA2 at these concentration gradients were separately injected into the detection channel at a flow rate of 30 μL/min, wherein 2 samples at the concentration of 0 were used for removing background signals. The times for the antibody-antigen binding and dissociation were 180 s and 400 s, respectively. Data analysis was performed using Biacore Insight Evaluation Software (Version 2.0.15.12933). After subtraction of the signals from the reference channel (flow cell 1) and 0 concentration, a 1:1 binding model was selected for curve fitting, and kinetic parameters calculated.

human PBMC cells = assay: Inhibition by humanized antibodies of IFNα release from human PBMC cells stimulated by CpG-A; type: cell-based; conditions: Table 4, humanized antibodies; read-out: EC50, inhibition of release of cytokine IFNα from human PBMC cells stimulated by CpG-A
Protocol: A series of humanized candidate antibody molecules were selected and subjected to the function detection of inhibiting the release of the cytokine IFNα from the human PBMC cells stimulated by CpG-A. The cryopreserved human PBMC cells were thawed and incubated in a complete culture medium (1640+10% FBS+1×NEAA+1×L-Glutamine) overnight for 18 h. The next day, the PBMC cells were collected and centrifuged at 600 g for 8 min, and the supernatant was discarded. The cells were resuspended to 8×10^6 cells/mL in a culture medium (1640+10% FBS), and the mixture was added to a 3799 cell culture plate at 100 μL/well. The test antibody was diluted in a 10-fold gradient (0.0001 nM-10 nM, and 0 concentration point was used as a control) with the culture medium (1640+10% FBS), and the diluted antibody was added to the PBMCs at 50 μL/well. The cells were resuspended and then incubated at 37° C. for 6 h. 50 μL of CpG-A (2 μM, Invitrogen, tlrl-2216-5) diluted in the culture medium (1640+10% FBS) was added to each well and mixed, followed by incubation at 37° C. for another 20 h. […]
The antibody MT1/3/5 (Mabtech, 3425-1H-20) was diluted to 4 μg/mL with PBS, and added to a CORNING ELISA plate at 100 μL/well. […] The values at OD450 nm were read on an ELISA plate reader, and curves were fitted using GraphPad Prism6. […]

Row | ka (recombinant Human BDCA2) [M⁻¹ s⁻¹] | kd (recombinant Human BDCA2) [s⁻¹] | Molecule | EC50 (human PBMC cells) [nM]
1 | 576000 | 0.000136 | Hu033-03(BM3): humanized anti-BDCA2 IgG1 antibody from mAb033; heavy chain SEQ ID NO: 19, light chain SEQ ID NO: 20 (antibody) heavy: EVQLVESGGGLVKPGGSLRLSCAASGFTFSSYGMSWVRQAPGKGLEWVSTISSGDSYTYYPDSVKGRFTISRDNAKNSLYLQMNSLRAEDTAVYYCARQIYYDYAYYFDFWGQGTTVTVSS[human IgG1 constant region not spelt out] light: DIVLTQSPASLAVSPGQRATITCRASESVSFRTSHLMHWYQQKPGQPPKLLIYGASNLESGVPARFSGSGSETDFTLTINPVEAEDTANYFCQQSIEDPPTFGGGTKVEIKRTVAAPSVFIFPPSDEQLKSGTASVVCLLNNFYPREAKVQWKVDNALQSGNSQESVTEQDSKDSTYSLSSTLTLSKADYEKHKVYACEVTHQGLSSPVTKSFNRGEC | 0.01
2 | 556000 | 0.000149 | Hu033-20(BM3): humanized anti-BDCA2 IgG1 antibody from mAb033; heavy chain SEQ ID NO: 21, light chain SEQ ID NO: 22 (antibody) heavy: EVQLVESGGGLVKPGGSLRLSCAASGFTFRSYGMSWVRQAPGKRLEWVSTISSGDSYTYYPDSVKGRFTISRDNAKNSLYLQMNSLKAEDTAVYYCARQIYYDYAYYFDFWGQGTTVTVSS[human IgG1 constant region not spelt out] light: DIVMTQSPDSLAVSLGERATINCRASESVSFRTSHLMHWYQQKPGQPPKLLIYGASNLESGVPDRFSGSGSGTDFTLTISSLQAEDVAVYYCQQSIEDPPTFGGGTKVEIKRTVAAPSVFIFPPSDEQLKSGTASVVCLLNNFYPREAKVQWKVDNALQSGNSQESVTEQDSKDSTYSLSSTLTLSKADYEKHKVYACEVTHQGLSSPVTKSFNRGEC | 0.01
